Test results published in the supplement of paper PMC8728848.
The other results are listed elsewhere or left out.

Experiments:
Assay in all cases: glycan array binding signal (z-score within array); higher = stronger binding
Conditions in all cases: glycan notation: IUPAC condensed, linker removed
[1] = molecular target: Fuc(a1-2)[Gal(a1-3)]Gal(b1-4)GlcNAc(b1-2)Man(a1-3)[Fuc(a1-2)[Gal(a1-3)]Gal(b1-4)GlcNAc(b1-2)Man(a1-6)]Man(b1-4)GlcNAc(b1-4)GlcNAc
In short: (§1)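 The binding signal is a Z-score computed within each array. Data were drawn from 3228 arrays in the Consortium for Functional Glycomics database, restricted to those with a known protein sequence. Scores were averaged over arrays of the same protein sequence at different concentrations or buffers, and over linkers, and negative values can be taken as non-binding.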

[2] = molecular target: Fuc(a1-2)[Gal(a1-3)]Gal(b1-4)GlcNAc(b1-2)Man(a1-3)[Fuc(a1-2)[Gal(a1-3)]Gal(b1-4)GlcNAc(b1-2)Man(a1-6)]Man(b1-4)GlcNAc(b1-4)[Fuc(a1-6)]GlcNAc
In short: as §1

[3] = molecular target: Fuc(a1-2)[Gal(a1-3)]Gal(b1-4)GlcNAc(b1-3)GalNAc
In short: as §1

[4] = molecular target: Fuc(a1-2)[Gal(a1-3)]Gal(b1-4)GlcNAc(b1-3)[Fuc(a1-2)[Gal(a1-3)]Gal(b1-4)GlcNAc(b1-6)]GalNAc
In short: as §1

[5] = molecular target: Fuc(a1-2)[Gal(a1-3)]Gal(b1-4)GlcNAc(b1-6)GalNAc
In short: as §1

[6] = molecular target: Fuc(a1-2)[Gal(a1-3)]Gal(b1-4)[Fuc(a1-3)]Glc
In short: as §1

[7] = molecular target: Fuc(a1-2)[Gal(a1-3)]Gal(b1-4)[Fuc(a1-3)]GlcNAc
In short: as §1

[8] = molecular target: Fuc(a1-2)[Gal(a1-3)]Gal(b1-4)[Fuc(a1-3)]GlcNAc(b1-3)GalNAc
In short: as §1

[9] = molecular target: Fuc(a1-2)[Gal(a1-4)]Gal(b1-4)GlcNAc
In short: as §1

[10] = molecular target: Fuc(a1-2)[GalNAc(a1-3)]Gal
In short: as §1

[11] = molecular target: Fuc(a1-2)[GalNAc(a1-3)]Gal(b1-3)GalNAc(a1-3)[Fuc(a1-2)]Gal(b1-4)GlcNAc
In short: as §1

[12] = molecular target: Fuc(a1-2)[GalNAc(a1-3)]Gal(b1-3)GalNAc(b1-3)Gal(a1-4)Gal(b1-4)Glc
In short: as §1

[13] = molecular target: Fuc(a1-2)[GalNAc(a1-3)]Gal(b1-3)GlcNAc
In short: as §1

[14] = molecular target: Fuc(a1-2)[GalNAc(a1-3)]Gal(b1-3)GlcNAc(b1-2)Man(a1-3)[Fuc(a1-2)[GalNAc(a1-3)]Gal(b1-3)GlcNAc(b1-2)Man(a1-6)]Man(b1-4)GlcNAc(b1-4)GlcNAc
In short: as §1

[15] = molecular target: Fuc(a1-2)[GalNAc(a1-3)]Gal(b1-3)GlcNAc(b1-2)Man(a1-3)[Fuc(a1-2)[GalNAc(a1-3)]Gal(b1-3)GlcNAc(b1-2)Man(a1-6)]Man(b1-4)GlcNAc(b1-4)[Fuc(a1-6)]GlcNAc
In short: as §1

[16] = molecular target: Fuc(a1-2)[GalNAc(a1-3)]Gal(b1-3)GlcNAc(b1-3)GalNAc
In short: as §1

[17] = molecular target: Fuc(a1-2)[GalNAc(a1-3)]Gal(b1-3)GlcNAc(b1-6)GalNAc
In short: as §1

[18] = molecular target: Fuc(a1-2)[GalNAc(a1-3)]Gal(b1-4)Glc
In short: as §1

[19] = molecular target: Fuc(a1-2)[GalNAc(a1-3)]Gal(b1-4)GlcNAc
In short: as §1

[20] = molecular target: Fuc(a1-2)[GalNAc(a1-3)]Gal(b1-4)GlcNAc(b1-2)Man
In short: as §1

[21] = molecular target: Fuc(a1-2)[GalNAc(a1-3)]Gal(b1-4)GlcNAc(b1-2)Man(a1-3)[Fuc(a1-2)[GalNAc(a1-3)]Gal(b1-4)GlcNAc(b1-2)Man(a1-6)]Man(b1-4)GlcNAc(b1-4)GlcNAc
In short: as §1

[22] = molecular target: Fuc(a1-2)[GalNAc(a1-3)]Gal(b1-4)GlcNAc(b1-2)Man(a1-3)[Fuc(a1-2)[GalNAc(a1-3)]Gal(b1-4)GlcNAc(b1-2)Man(a1-6)]Man(b1-4)GlcNAc(b1-4)[Fuc(a1-6)]GlcNAc
In short: as §1

[23] = molecular target: Fuc(a1-2)[GalNAc(a1-3)]Gal(b1-4)GlcNAc(b1-3)Gal(b1-4)GlcNAc
In short: as §1

[24] = molecular target: Fuc(a1-2)[GalNAc(a1-3)]Gal(b1-4)GlcNAc(b1-3)Gal(b1-4)GlcNAc(b1-3)Gal(b1-4)GlcNAc
In short: as §1

[25] = molecular target: Fuc(a1-2)[GalNAc(a1-3)]Gal(b1-4)GlcNAc(b1-3)GalNAc
In short: as §1

[26] = molecular target: Fuc(a1-2)[GalNAc(a1-3)]Gal(b1-4)GlcNAc(b1-3)[Fuc(a1-2)[GalNAc(a1-3)]Gal(b1-4)GlcNAc(b1-6)]GalNAc
In short: as §1

[27] = molecular target: Fuc(a1-2)[GalNAc(a1-3)]Gal(b1-4)GlcNAc(b1-6)GalNAc
In short: as §1

[28] = molecular target: Fuc(a1-2)[GalNAc(a1-3)]Gal(b1-4)[Fuc(a1-3)]GlcNAc
In short: as §1

[29] = molecular target: Fuc(a1-2)[GalNAc(a1-3)]Gal(b1-4)[Fuc(a1-3)]GlcNAc(b1-3)GalNAc
In short: as §1

[30] = molecular target: Fuc(a1-2)[GalNAc(a1-4)]Gal(b1-4)GlcNAc
In short: as §1

[31] = molecular target: Fuc(a1-2)[GalNAc(b1-3)]Gal
In short: as §1

Fuc(a1-3)GlcNAc = molecular target: Fuc(a1-3)GlcNAc
In short: as §1

[32] = molecular target: Fuc(a1-3)[Gal(b1-4)]Glc6S
In short: as §1

[33] = molecular target: Fuc(a1-3)[Gal(b1-4)]GlcNAc
In short: as §1

[34] = molecular target: Fuc(a1-3)[Gal(b1-4)]GlcNAc(b1-2)Man
In short: as §1

[35] = molecular target: Fuc(a1-3)[Gal(b1-4)]GlcNAc(b1-2)Man(a1-3)[Fuc(a1-3)[Gal(b1-4)]GlcNAc(b1-2)Man(a1-6)]Man(b1-4)GlcNAc(b1-4)GlcNAc
In short: as §1

[36] = molecular target: Fuc(a1-3)[Gal(b1-4)]GlcNAc(b1-2)Man(a1-3)[Fuc(a1-3)[Gal(b1-4)]GlcNAc(b1-2)Man(a1-6)]Man(b1-4)GlcNAc(b1-4)[Fuc(a1-6)]GlcNAc
In short: as §1

[37] = molecular target: Fuc(a1-3)[Gal(b1-4)]GlcNAc(b1-3)Gal(b1-3)[Fuc(a1-4)]GlcNAc
In short: as §1

[38] = molecular target: Fuc(a1-3)[Gal(b1-4)]GlcNAc(b1-3)Gal(b1-4)[Fuc(a1-3)]GlcNAc
In short: as §1

[39] = molecular target: Fuc(a1-3)[Gal(b1-4)]GlcNAc(b1-3)Gal(b1-4)[Fuc(a1-3)]GlcNAc(b1-3)Gal(b1-4)[Fuc(a1-3)]GlcNAc
In short: as §1

[40] = molecular target: Fuc(a1-3)[Gal(b1-4)]GlcNAc(b1-3)GalNAc
In short: as §1

[41] = molecular target: Fuc(a1-3)[Gal(b1-4)]GlcNAc(b1-6)GalNAc
In short: as §1

[42] = molecular target: Fuc(a1-3)[Gal(b1-4)]GlcNAc(b1-6)[Gal(b1-3)GlcNAc(b1-3)]Gal(b1-4)Glc
In short: as §1

[43] = molecular target: Fuc(a1-3)[Gal(b1-4)]GlcNAc6S
In short: as §1

[44] = molecular target: Fuc(a1-3)[Gal3S(b1-4)]Glc
In short: as §1

B1: Banana lectin (Musa acuminata) (protein)
chain: MNGAIKVGAWGGNGGSAFDMGPAYRIISVKIFSGDVVDAVDVTFTYYGKTETRHFGGSGGTPHEIVLQEGEYLVGMKGEFGNYHGVVVVGKLGFSTNKKSYGPFGNTGGTPFSLPIAAGKISGFFGRGGDFIDAIGVYLEP
- glycan array binding signal (z-score) [1]: -0.075
- glycan array binding signal (z-score) [2]: 0.098
- glycan array binding signal (z-score) [3]: -0.195
- glycan array binding signal (z-score) [4]: -0.188
- glycan array binding signal (z-score) [5]: -0.194
- glycan array binding signal (z-score) [6]: -0.192
- glycan array binding signal (z-score) [7]: -0.194
- glycan array binding signal (z-score) [8]: -0.195
- glycan array binding signal (z-score) [9]: -0.206
- glycan array binding signal (z-score) [10]: -0.194
- glycan array binding signal (z-score) [11]: -0.205
- glycan array binding signal (z-score) [12]: -0.194
- glycan array binding signal (z-score) [13]: -0.193
- glycan array binding signal (z-score) [14]: -0.149
- glycan array binding signal (z-score) [15]: 0.244
- glycan array binding signal (z-score) [16]: -0.188
- glycan array binding signal (z-score) [17]: -0.195
- glycan array binding signal (z-score) [18]: -0.193
- glycan array binding signal (z-score) [19]: -0.194
- glycan array binding signal (z-score) [20]: -0.195
- glycan array binding signal (z-score) [21]: -0.058
- glycan array binding signal (z-score) [22]: 0.117
- glycan array binding signal (z-score) [23]: -0.193
- glycan array binding signal (z-score) [24]: -0.189
- glycan array binding signal (z-score) [25]: -0.192
- glycan array binding signal (z-score) [26]: -0.193
- glycan array binding signal (z-score) [27]: -0.193
- glycan array binding signal (z-score) [28]: -0.193
- glycan array binding signal (z-score) [29]: -0.19
- glycan array binding signal (z-score) [30]: -0.195
- glycan array binding signal (z-score) [31]: -0.192
- glycan array binding signal (z-score) (Fuc(a1-3)GlcNAc): -0.196
- glycan array binding signal (z-score) [32]: -0.189
- glycan array binding signal (z-score) [33]: -0.193
- glycan array binding signal (z-score) [34]: -0.193
- glycan array binding signal (z-score) [35]: -0.17
- glycan array binding signal (z-score) [36]: -0.19
- glycan array binding signal (z-score) [37]: -0.191
- glycan array binding signal (z-score) [38]: -0.179
- glycan array binding signal (z-score) [39]: -0.197
- glycan array binding signal (z-score) [40]: -0.193
- glycan array binding signal (z-score) [41]: -0.194
- glycan array binding signal (z-score) [42]: -0.195
- glycan array binding signal (z-score) [43]: -0.192
- glycan array binding signal (z-score) [44]: -0.192
